The values below come from the supplement of paper PMC10338343.

± gives the standard deviation. In all, about 6,600 sequences were measured (“pre-steady-state target cleavage rate”: median about 0.07, highest 2% from about 0.72 on). Only a part is listed here, and it is no random draw.
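Note: 1 nM active piRISC with 0.1 nM target library at 33 °C single turnover.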

This test deals with MIWI (PIWIL1) piRISC loaded with Kctd7 piRNA (30 nt). Put plainly: pre-steady-state target cleavage rate (min^-1); MIWI and MILI are mouse PIWI proteins and EfPiwi is from a freshwater sponge; tags in brackets are library labels; higher = faster piRNA-guided slicing of the target. To be noted: guide: Kctd7 piRNA 5'p-UGUUAAUCUCUCAGAGAAGGUGACAGUGAU; auxiliary factor: 500 nM mouse GTSF1. The method in brief: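 The pre-steady-state cleavage rate was derived from a burst-and-steady-state fit of Cleave-'n-Seq data. For these assays, 1 nM active affinity-purified piRISC loaded with a single synthetic guide was mixed with […] a transcribed, DNA-blocked target RNA library in HEPES–potassium acetate buffer at 33 °C, with or without 500 nM GTSF1 partner protein, for 0–8 or 0–960 min. Sequencing counts of uncleaved targets were normalised to depth and to weakly complementary targets, and k3 was capped at 0.0001 min^-1 after three trials were pooled.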
For the sequence UAGUGUGUCACCUUCUCUGACAGAUUAUGA, the “pre-steady-state target cleavage rate” value was 0.00437 ± 0.0041. UAGUGACAGUCCUUGUCUGAGAGAUUUACA: the “pre-steady-state target cleavage rate” value came out at 0.00584 ± 0.0027. Consider UAGUGACACACCUUCACUGAGAGAUAAACA, for which the “pre-steady-state target cleavage rate” value came to 0.112 ± 0.022. Take UACACUGUCACCUUCUCUGAGAGAUAACA: the “pre-steady-state target cleavage rate” value was found to be 0.151 ± 0.026. For UACAGUGUCACCUACUCUGAGAGAUUAACA, the “pre-steady-state target cleavage rate” value was determined as 0.585 ± 0.038. In the case of UACACUGUCACCUUCUCUGUGAGAUUUACA, the “pre-steady-state target cleavage rate” value came out at 0.19 ± 0.03.

With AUCACUGUCACCUUCUCACAGAGAUUAACA, the “pre-steady-state target cleavage rate” value came to 0.0253 ± 0.0073. Turning to UAGUGUGUCACCUUCUCUGAGAGUAAAAGA, the “pre-steady-state target cleavage rate” value worked out at 0.053 ± 0.021.

Take UAGUGACAGACCUUCUCUGAGAGAUUAAAA: the “pre-steady-state target cleavage rate” value came to 0.074 ± 0.015. With UUCACUGUCACCUUCUCUCAGAGAUUAUGA, the “pre-steady-state target cleavage rate” value came to 0.0222 ± 0.0082. For the sequence UACACUGUCACCUUCUCUGACAGAUUUACA, the “pre-steady-state target cleavage rate” value turned out to be 0.0383 ± 0.011. Take UAGUGACAGACCUUCUCUGAGAGAUUGAACA: the “pre-steady-state target cleavage rate” value is 0.0387 ± 0.0074.

In the case of UAGUCUCACACCUUCUCUGAGAGAUUUUGA, the “pre-steady-state target cleavage rate” value stood at 0.0199 ± 0.0063.

On to UAGUGACUCAGCUUCUCUCAGAGAUUAACA, for which the “pre-steady-state target cleavage rate” value came to 0.0105 ± 0.0034.

For UAGUGAGUGACCUUCUCUGAGAGAUUUACA, the “pre-steady-state target cleavage rate” value turned out to be 0.25 ± 0.032.

UAGACUGUGACCUUCUGUGAGAGAUUAACA: the “pre-steady-state target cleavage rate” value is 0.314 ± 0.023.

As for UAGUGAGUCACCUACUCUGAGAGAUAAACA, the “pre-steady-state target cleavage rate” value was 0.275 ± 0.035. As for AUCAGUGUCACCUUCUCUGAGAGAUUUACA, the figure is 0.27 ± 0.036; as for AUCACAGUCACCUUCUCUGAGUGAUUAACA, 0.0408 ± 0.0084; as for AUCACUGUCACCUUGAGUGAGAGAUUAACA, 0.0226 ± 0.012.

As for UAGUGACUCACCUUCCUCUGAGAGAUUAACA, the “pre-steady-state target cleavage rate” value came to 0.0564 ± 0.0091. UAGUGUGUCACCUUCACUGAGAGAUUUACA: the “pre-steady-state target cleavage rate” value came out at 0.168 ± 0.026. Turning to UAGUCAGUCACCUUCUCUGAGUGAUUAACA, the “pre-steady-state target cleavage rate” value is 0.0302 ± 0.0058.

UUGCACUGUCACCUUCUCUGAGAGAUUAACA: the “pre-steady-state target cleavage rate” value turned out to be 0.781 ± 0.045. For the sequence “UAGUGAGUCACCUUCUCUGAGAGAUUAACC [g2:g24:cont:t1C]”, the “pre-steady-state target cleavage rate” value was found to be 0.328 ± 0.02. As to UAGUGAGUCACCUUCUCUGUGACAUUAACA, the “pre-steady-state target cleavage rate” value came out at 0.0411 ± 0.0085. The figure for UACACUGAGACCUUCUCUGAGAGAUUUUGA is 0.0222 ± 0.0096.

With UUCACUGUCACCUUCUCGGAGAGAUUAACA, the “pre-steady-state target cleavage rate” value was 0.256 ± 0.018. As to UUCACUGUCACCUUCUGUGAGAGAUAUUGA, the “pre-steady-state target cleavage rate” value worked out at 0.0244 ± 0.011. UAGUGACAGUCCUGCUCUGAGAGAUUAACA: the “pre-steady-state target cleavage rate” value came out at 0.0158 ± 0.0033. For “UAGUGACAGACCUUCUCUGAGAGAUUAACC [g2:g21:cont:t1C]”, the “pre-steady-state target cleavage rate” value was found to be 0.109 ± 0.012. As for AUCACUGUCACCUUCUCUGAGAGAUAAUGA, the figure is 0.0523 ± 0.014. Consider UAGUGAGUCACCUUCUUCUGAGAGAUUAACA, for which the “pre-steady-state target cleavage rate” value came out at 0.0316 ± 0.015.

UAGUGACAGUGCUUCUCUGAGAGUAUUAACA: the “pre-steady-state target cleavage rate” value turned out to be 0.00419 ± 0.0027. With UAGUGACUCUCCUUCUCUGAGAGAUUAUGA, the “pre-steady-state target cleavage rate” value came out at 0.00356 ± 0.0021. The figure for UAGUCUGUCACCAUCUCAGAGAGAUUAACA is 0.11 ± 0.013. Regarding UAGUCUGAGUCCUUCUCUGAGAGAUUAACA, the “pre-steady-state target cleavage rate” value is 0.0581 ± 0.0078. For UACACUCACACCUUCUCUGAGAGAUUAAGA, the “pre-steady-state target cleavage rate” value worked out at 0.109 ± 0.023.

Consider UAGUGAGUCACCUUCCUGAGAGAUUAACA, for which the “pre-steady-state target cleavage rate” value came to 0.0758 ± 0.021.

UAGUGACUCACCUUCUCUGUGAGUUUAACA: the “pre-steady-state target cleavage rate” value is 0.0217 ± 0.0082. As for UAGUGACAGACCUUCUCUGAGAGAAUAACA, the figure is 0.0288 ± 0.0083; as for UAGUCUGACUCCUUCUCUGAGAGAUUAACA, 0.237 ± 0.022; as for UACACUGUGUCCUUCUCUGAGAGAUUAAGA, 0.0709 ± 0.014. Consider AUCAGUGUCACCUUGUCUGAGAGAUUAACA, for which the “pre-steady-state target cleavage rate” value came out at 0.209 ± 0.029. As for UAGUGACAGUGGAACUCUGAGACUAUAACA, the figure is 0.00936 ± 0.0093; as for UAGUGACAGUGCUUCUCUGAGAGAUUCAACA, 0.00487 ± 0.0022; as for UACACUGUCACCUACUCUGAGAGAUAAACA, 0.227 ± 0.024. As to UAGUCUGUCAACCUUCUCUGAGAGAUUAACA, the “pre-steady-state target cleavage rate” value is 0.256 ± 0.022.

Turning to UAGUGACAGUGGAAGUCUGAGAGACUUAACA, the “pre-steady-state target cleavage rate” value is < 0.0001. The figure for UAGUGUGUCACGUUCUCUGAGAGAUUAUGA is 0.0336 ± 0.0096; for UAGUGACUCACGUUCUCUCAGAGAUUAACA it is 0.0111 ± 0.0034. As for UACACUGUCACCUUCUCUAAGAGAUUAACA, the “pre-steady-state target cleavage rate” value was found to be 0.416 ± 0.022. With AUCAGACUCACCUUCUCUGAGAGAUAUUGA, the “pre-steady-state target cleavage rate” value was 0.00457 ± 0.0024. Regarding UAGUGACACACCUUCUCUGAGAGUAUUAACA, the “pre-steady-state target cleavage rate” value stood at 0.224 ± 0.029. Regarding UAGUGUGUCACCAAGUCUGAGAGAUUAACA, the “pre-steady-state target cleavage rate” value is 0.0449 ± 0.0069. With UAGUGACUCACCUUGUCUGAGAGAUUAAGA, the “pre-steady-state target cleavage rate” value is 0.0301 ± 0.013. Regarding AUCACUGUCACCUUCUCUGUCUGAUUAUGA, the “pre-steady-state target cleavage rate” value stood at 0.0195 ± 0.0084. UAGUGACACAGCUUCUCUGAGAGAUAAACA: the “pre-steady-state target cleavage rate” value amounted to 0.0495 ± 0.0065.

As to UUCACUGUCAGGUUCUCUGAGAGAUUAUGA, the “pre-steady-state target cleavage rate” value was determined as 0.0127 ± 0.003.

Consider AUCACUGUCAGGAUCUCUGAGAGAUUAACA, for which the “pre-steady-state target cleavage rate” value came out at 0.225 ± 0.03. With UACACUGUCACCUCUCUGAGAGAUUAACA, the “pre-steady-state target cleavage rate” value was found to be 0.5 ± 0.035. For the sequence UUCACUGUCACCUUCUCUGAGAGAAUUACA, the “pre-steady-state target cleavage rate” value is 0.42 ± 0.091. As for UAGUGUGUCACCAUCUCUGUGAGAUUAACA, the “pre-steady-state target cleavage rate” value was found to be 0.149 ± 0.014. In the case of UAGACUGUCACCUUCUCUGAGAGAUUCACA, the “pre-steady-state target cleavage rate” value came to 0.429 ± 0.075.

Turning to UUCACUGUCACCUACUCUGAGUGAUUAACA, the “pre-steady-state target cleavage rate” value was 0.0268 ± 0.0038.

Consider AUCACUGUCUCCUUCUCUGAGAGAUUUACA, for which the “pre-steady-state target cleavage rate” value was determined as 0.295 ± 0.04.

With UAGUGACAGUCCUUCUCAGAGAGAUUAACA, the “pre-steady-state target cleavage rate” value was 0.011 ± 0.004. As for UAGACUCUCACCUUCUCUGAGAGAUUAUGA, the figure is 0.0895 ± 0.013; as for UUCACUGUCACCUACUCUGAGAGAUUAUGA, 0.0962 ± 0.019. For the sequence UAGUGACACACCUUGUCUGAGAGAUUAAGA, the “pre-steady-state target cleavage rate” value came out at 0.00447 ± 0.0038.

For the sequence UAGUCUGUCACCUUCUGUGAGUGAUUAACA, the “pre-steady-state target cleavage rate” value is 0.0196 ± 0.0049. UACACUGUGUCCUUCUCUGAGAGAUUAACA: the “pre-steady-state target cleavage rate” value is 0.423 ± 0.035. For the sequence UAGACUGUCACCUUCUGAGAGAGAUUAACA, the “pre-steady-state target cleavage rate” value is 0.0337 ± 0.0047. In the case of UAGUGUGUCACCUACUCUGAGUGAUUAACA, the “pre-steady-state target cleavage rate” value was determined as 0.017 ± 0.0065. The figure for UUCACUGUCACCUUCUCUGAGACAUAAACA is 0.0192 ± 0.0056; for UAGUGACAGUCCUUCUCUGAGACAUUAAGA it is < 0.0001. On to UACACUGUGACCUUCUCUGAGAGAUUAACA, for which the “pre-steady-state target cleavage rate” value was 0.464 ± 0.037. As to UAGUCUGUUACCUUCUCUGAGAGAUUAACA, the “pre-steady-state target cleavage rate” value came to 0.541 ± 0.03. Take UUCUCUGUCACCUUCUGUGAGAGAUUAACA: the “pre-steady-state target cleavage rate” value was 0.414 ± 0.02.

Take UAGUGAGUCACCUUCUCUGAGAGAUUACCA: the “pre-steady-state target cleavage rate” value is 0.258 ± 0.039. Regarding UAGUCGUCACCUUCUCUGAGAGAUUAACA, the “pre-steady-state target cleavage rate” value came out at 0.7 ± 0.049. For AUCACUGUCACCUUCUCUGAGAGUUUUACA, the “pre-steady-state target cleavage rate” value is 0.408 ± 0.093. In the case of UAGACUGUCACCUUCUCUCAGAGAUUAUCA, the “pre-steady-state target cleavage rate” value turned out to be 0.0732 ± 0.011. The figure for UACACUGUCACGUUCACUGAGAGAUUAACA is 0.365 ± 0.023; for UAGUGACUCACCUCUCUCUGAGAGAUUAACA it is 0.135 ± 0.018. Regarding AUCACUGUCACGAACUCUGAGAGAUUAACA, the “pre-steady-state target cleavage rate” value turned out to be 0.164 ± 0.02. On to AUCACUGUCAGCUUCUCUGACAGAUUAACA, for which the “pre-steady-state target cleavage rate” value was 0.0278 ± 0.0093. Take “UAGUGACAGUGCUUCUCUGAGAGUAAUUGA [g8:g19:cont:t1A]”: the “pre-steady-state target cleavage rate” value was < 0.0001. The figure for UAGACUGUCACCUACUCUGAGACAUUAACA is 0.0108 ± 0.003. For UAGUGACAGAGCCUUCUCUGAGAGAUUAACA, the “pre-steady-state target cleavage rate” value came out at 0.154 ± 0.013. UUCACUGUCACCUUCUCUGAUGAGAUUAACA: the “pre-steady-state target cleavage rate” value came out at 0.0181 ± 0.008.
